Some of the results follow.
How the values were obtained:
Test in all cases: glycan array binding signal (z-score within array); higher = stronger binding
Conditions in all cases: glycan notation: IUPAC condensed, linker removed
[1] = molecular target: Fuc(a1-2)[Gal(a1-3)]Gal(b1-4)GlcNAc(b1-2)Man(a1-3)[Fuc(a1-2)[Gal(a1-3)]Gal(b1-4)GlcNAc(b1-2)Man(a1-6)]Man(b1-4)GlcNAc(b1-4)[Fuc(a1-6)]GlcNAc
Outline: (§1)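 The Consortium for Functional Glycomics database supplied 3228 glycan arrays, of which those lacking an available protein sequence were dropped. The binding signal, a within-array Z-score, was averaged across arrays of the same protein sequence and across linkers. Negative scores can be read as non-binding.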

[2] = molecular target: Fuc(a1-2)[Gal(a1-3)]Gal(b1-4)GlcNAc(b1-3)GalNAc
Outline: as §1

[3] = molecular target: Fuc(a1-2)[Gal(a1-3)]Gal(b1-4)GlcNAc(b1-3)[Fuc(a1-2)[Gal(a1-3)]Gal(b1-4)GlcNAc(b1-6)]GalNAc
Outline: as §1

[4] = molecular target: Fuc(a1-2)[Gal(a1-3)]Gal(b1-4)GlcNAc(b1-6)GalNAc
Outline: as §1

[5] = molecular target: Fuc(a1-2)[Gal(a1-3)]Gal(b1-4)[Fuc(a1-3)]Glc
Outline: as §1

[6] = molecular target: Fuc(a1-2)[Gal(a1-3)]Gal(b1-4)[Fuc(a1-3)]GlcNAc
Outline: as §1

[7] = molecular target: Fuc(a1-2)[Gal(a1-3)]Gal(b1-4)[Fuc(a1-3)]GlcNAc(b1-3)GalNAc
Outline: as §1

[8] = molecular target: Fuc(a1-2)[Gal(a1-4)]Gal(b1-4)GlcNAc
Outline: as §1

[9] = molecular target: Fuc(a1-2)[GalNAc(a1-3)]Gal
Outline: as §1

[10] = molecular target: Fuc(a1-2)[GalNAc(a1-3)]Gal(b1-3)GalNAc(a1-3)[Fuc(a1-2)]Gal(b1-4)GlcNAc
Outline: as §1

[11] = molecular target: Fuc(a1-2)[GalNAc(a1-3)]Gal(b1-3)GalNAc(b1-3)Gal(a1-4)Gal(b1-4)Glc
Outline: as §1

[12] = molecular target: Fuc(a1-2)[GalNAc(a1-3)]Gal(b1-3)GlcNAc
Outline: as §1

[13] = molecular target: Fuc(a1-2)[GalNAc(a1-3)]Gal(b1-3)GlcNAc(b1-2)Man(a1-3)[Fuc(a1-2)[GalNAc(a1-3)]Gal(b1-3)GlcNAc(b1-2)Man(a1-6)]Man(b1-4)GlcNAc(b1-4)GlcNAc
Outline: as §1

[14] = molecular target: Fuc(a1-2)[GalNAc(a1-3)]Gal(b1-3)GlcNAc(b1-2)Man(a1-3)[Fuc(a1-2)[GalNAc(a1-3)]Gal(b1-3)GlcNAc(b1-2)Man(a1-6)]Man(b1-4)GlcNAc(b1-4)[Fuc(a1-6)]GlcNAc
Outline: as §1

[15] = molecular target: Fuc(a1-2)[GalNAc(a1-3)]Gal(b1-3)GlcNAc(b1-3)GalNAc
Outline: as §1

[16] = molecular target: Fuc(a1-2)[GalNAc(a1-3)]Gal(b1-3)GlcNAc(b1-6)GalNAc
Outline: as §1

[17] = molecular target: Fuc(a1-2)[GalNAc(a1-3)]Gal(b1-4)Glc
Outline: as §1

[18] = molecular target: Fuc(a1-2)[GalNAc(a1-3)]Gal(b1-4)GlcNAc
Outline: as §1

[19] = molecular target: Fuc(a1-2)[GalNAc(a1-3)]Gal(b1-4)GlcNAc(b1-2)Man
Outline: as §1

[20] = molecular target: Fuc(a1-2)[GalNAc(a1-3)]Gal(b1-4)GlcNAc(b1-2)Man(a1-3)[Fuc(a1-2)[GalNAc(a1-3)]Gal(b1-4)GlcNAc(b1-2)Man(a1-6)]Man(b1-4)GlcNAc(b1-4)GlcNAc
Outline: as §1

[21] = molecular target: Fuc(a1-2)[GalNAc(a1-3)]Gal(b1-4)GlcNAc(b1-2)Man(a1-3)[Fuc(a1-2)[GalNAc(a1-3)]Gal(b1-4)GlcNAc(b1-2)Man(a1-6)]Man(b1-4)GlcNAc(b1-4)[Fuc(a1-6)]GlcNAc
Outline: as §1

[22] = molecular target: Fuc(a1-2)[GalNAc(a1-3)]Gal(b1-4)GlcNAc(b1-3)Gal(b1-4)GlcNAc
Outline: as §1

[23] = molecular target: Fuc(a1-2)[GalNAc(a1-3)]Gal(b1-4)GlcNAc(b1-3)Gal(b1-4)GlcNAc(b1-3)Gal(b1-4)GlcNAc
Outline: as §1

[24] = molecular target: Fuc(a1-2)[GalNAc(a1-3)]Gal(b1-4)GlcNAc(b1-3)GalNAc
Outline: as §1

[25] = molecular target: Fuc(a1-2)[GalNAc(a1-3)]Gal(b1-4)GlcNAc(b1-3)[Fuc(a1-2)[GalNAc(a1-3)]Gal(b1-4)GlcNAc(b1-6)]GalNAc
Outline: as §1

[26] = molecular target: Fuc(a1-2)[GalNAc(a1-3)]Gal(b1-4)GlcNAc(b1-6)GalNAc
Outline: as §1

[27] = molecular target: Fuc(a1-2)[GalNAc(a1-3)]Gal(b1-4)[Fuc(a1-3)]GlcNAc
Outline: as §1

[28] = molecular target: Fuc(a1-2)[GalNAc(a1-3)]Gal(b1-4)[Fuc(a1-3)]GlcNAc(b1-3)GalNAc
Outline: as §1

[29] = molecular target: Fuc(a1-2)[GalNAc(a1-4)]Gal(b1-4)GlcNAc
Outline: as §1

[30] = molecular target: Fuc(a1-2)[GalNAc(b1-3)]Gal
Outline: as §1

Fuc(a1-3)GlcNAc = molecular target: Fuc(a1-3)GlcNAc
Outline: as §1

[31] = molecular target: Fuc(a1-3)[Gal(b1-4)]Glc6S
Outline: as §1

[32] = molecular target: Fuc(a1-3)[Gal(b1-4)]GlcNAc
Outline: as §1

[33] = molecular target: Fuc(a1-3)[Gal(b1-4)]GlcNAc(b1-2)Man
Outline: as §1

[34] = molecular target: Fuc(a1-3)[Gal(b1-4)]GlcNAc(b1-2)Man(a1-3)[Fuc(a1-3)[Gal(b1-4)]GlcNAc(b1-2)Man(a1-6)]Man(b1-4)GlcNAc(b1-4)GlcNAc
Outline: as §1

[35] = molecular target: Fuc(a1-3)[Gal(b1-4)]GlcNAc(b1-2)Man(a1-3)[Fuc(a1-3)[Gal(b1-4)]GlcNAc(b1-2)Man(a1-6)]Man(b1-4)GlcNAc(b1-4)[Fuc(a1-6)]GlcNAc
Outline: as §1

[36] = molecular target: Fuc(a1-3)[Gal(b1-4)]GlcNAc(b1-3)Gal(b1-3)[Fuc(a1-4)]GlcNAc
Outline: as §1

[37] = molecular target: Fuc(a1-3)[Gal(b1-4)]GlcNAc(b1-3)Gal(b1-4)[Fuc(a1-3)]GlcNAc
Outline: as §1

[38] = molecular target: Fuc(a1-3)[Gal(b1-4)]GlcNAc(b1-3)Gal(b1-4)[Fuc(a1-3)]GlcNAc(b1-3)Gal(b1-4)[Fuc(a1-3)]GlcNAc
Outline: as §1

[39] = molecular target: Fuc(a1-3)[Gal(b1-4)]GlcNAc(b1-3)GalNAc
Outline: as §1

[40] = molecular target: Fuc(a1-3)[Gal(b1-4)]GlcNAc(b1-6)GalNAc
Outline: as §1

[41] = molecular target: Fuc(a1-3)[Gal(b1-4)]GlcNAc(b1-6)[Gal(b1-3)GlcNAc(b1-3)]Gal(b1-4)Glc
Outline: as §1

[42] = molecular target: Fuc(a1-3)[Gal(b1-4)]GlcNAc6S
Outline: as §1

[43] = molecular target: Fuc(a1-3)[Gal3S(b1-4)]Glc
Outline: as §1

[44] = molecular target: Fuc(a1-3)[Gal3S(b1-4)]GlcNAc
Outline: as §1

B1: GS13846A-bth-444-19-444 (Bacteroides thetaiotaomicron) (protein)
chain: SCENEFDVSDKADSLISVTVNTLNNQAAYNVGETAQAELWIQRGGLKDASGKVQFVVDPLLLDSLNQEDKTNYELLPENCYEMTNTEFTVDKNELCGYITYHPEKILALSAYNETKYVLPLRLISNDLAINPARNTSFLAFTILEPIVHISNAGVYNINPDLTSTMDIQIGVPFTNKWDILCNLTEDLSLIDEYNQINKVNFTLLPENAYTAPESVTLQEGVSQITASYQLKNNLVPGNYILPIKIGSITASQGGVPNNSLVIDEESNVLFCIVKEGNKINKSGWEVIECSSEHAGNEATYMIDDNESTYWHCKFKNEAGSSVPPFHFIIDMKKEITIAQIDLLNRGDGAANNIKWVEFYASNNNSEWDKIGAGDFNDEGTRATFRYYVKSTKARYLKLIIPEGYGNNCPPAAIRELTVYGLEGNN
glycan array binding signal (z-score) [1]: 0.056
glycan array binding signal (z-score) [2]: -0.247
glycan array binding signal (z-score) [3]: -0.093
glycan array binding signal (z-score) [4]: -0.488
glycan array binding signal (z-score) [5]: 0.113
glycan array binding signal (z-score) [6]: -0.427
glycan array binding signal (z-score) [7]: -0.166
glycan array binding signal (z-score) [8]: -0.138
glycan array binding signal (z-score) [9]: -0.112
glycan array binding signal (z-score) [10]: -0.106
glycan array binding signal (z-score) [11]: -0.269
glycan array binding signal (z-score) [12]: -0.002
glycan array binding signal (z-score) [13]: -0.289
glycan array binding signal (z-score) [14]: 0.032
glycan array binding signal (z-score) [15]: -0.33
glycan array binding signal (z-score) [16]: -0.21
glycan array binding signal (z-score) [17]: -0.135
glycan array binding signal (z-score) [18]: -0.323
glycan array binding signal (z-score) [19]: -0.352
glycan array binding signal (z-score) [20]: 0.446
glycan array binding signal (z-score) [21]: -0.119
glycan array binding signal (z-score) [22]: -0.207
glycan array binding signal (z-score) [23]: -0.249
glycan array binding signal (z-score) [24]: -0.26
glycan array binding signal (z-score) [25]: -0.096
glycan array binding signal (z-score) [26]: -0.248
glycan array binding signal (z-score) [27]: -0.026
glycan array binding signal (z-score) [28]: 0.146
glycan array binding signal (z-score) [29]: -0.246
glycan array binding signal (z-score) [30]: -0.106
glycan array binding signal (z-score) (Fuc(a1-3)GlcNAc): 0.116
glycan array binding signal (z-score) [31]: 0.033
glycan array binding signal (z-score) [32]: -0.105
glycan array binding signal (z-score) [33]: -0.122
glycan array binding signal (z-score) [34]: -0.273
glycan array binding signal (z-score) [35]: 0.36
glycan array binding signal (z-score) [36]: -0.295
glycan array binding signal (z-score) [37]: -0.137
glycan array binding signal (z-score) [38]: -0.04
glycan array binding signal (z-score) [39]: -0.339
glycan array binding signal (z-score) [40]: -0.335
glycan array binding signal (z-score) [41]: -0.354
glycan array binding signal (z-score) [42]: -0.344
glycan array binding signal (z-score) [43]: -0.17
glycan array binding signal (z-score) [44]: -0.257

From the supplement of paper PMC8728848
